From the supplement of paper PMC4166925
± gives the standard deviation of the averaged measurements. In all, about 33,000 sequences were measured (“E-score (dimensionless, -0.5 to 0.5)”: median about -0.046, highest 2% from about 0.36 on). The list shows a part of the results.

System: T1, SpTbr T-box DNA-binding domain (GST fusion)
T1 sequence: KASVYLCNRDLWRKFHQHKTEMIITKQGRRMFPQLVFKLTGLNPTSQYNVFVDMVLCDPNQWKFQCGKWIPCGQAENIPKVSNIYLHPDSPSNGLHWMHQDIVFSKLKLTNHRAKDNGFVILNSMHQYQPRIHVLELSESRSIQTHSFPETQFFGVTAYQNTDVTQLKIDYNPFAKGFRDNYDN
Assay: PBM E-score of 8-mer (E-score (dimensionless, -0.5 to 0.5)); Tbr is Tbrain of the sea star Patiria miniata (Pm) or the sea urchin Strongylocentrotus purpuratus (Sp); higher = stronger binding preference; most listed sequences are background and not binding sites
Details: the construct has about 5 more residues each side
How it was run: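 GST-fused Tbr T-box DNA-binding domains (the whole T-box plus about five flanking residues) were expressed in BL21 E. coli at 20 °C and purified by glutathione affinity chromatography. Universal Agilent oligonucleotide arrays were made double-stranded by primer extension, incubated with 200 nM protein in PBS (pH 7.5), then scanned and quantified. Every ungapped 8-mer was scored from probe intensities. The Universal PBM Analysis Suite gave each word an enrichment E-score, averaged over duplicate arrays.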

Sequence	PBM E-score of 8-mer
ATGAAACC	-0.124 ± 0.0061
CGAGGTTC	-0.0319 ± 0.086
AGGTTACC	-0.0452 ± 0.017
CGGAGTTC	-0.221 ± 0.026
AATTGTGA	0.313 ± 0.033
AGTCCCAA	-0.336 ± 0.029
TGTGAGAA	0.4336 ± 0.0026
TCCACCCA	-0.229 ± 0.026
GAGAGTCA	-0.0956 ± 0.025
ACGGGATC	-0.0828 ± 0.015
TAAGTCTA	-0.0674 ± 0.11
GCACTGAA	0.119 ± 0.057
ATCAGCTC	-0.229 ± 0.056
ATGTAGTA	-0.225 ± 0.094
CGGCCCCC	-0.229 ± 0.006
TGTTGAAA	0.245 ± 0.068
CTTTAGGA	-0.251 ± 0.12
CTAACCCA	0.123 ± 0.062
GGGATTTA	-0.306 ± 0.058
AAGCTGTG	0.2503 ± 0.0023
ATGAGCTA	-0.276 ± 0.025
ACCATCAT	-0.259 ± 0.11
GTTAAATA	0.1 ± 0.038
CAGCACGA	0.14 ± 0.039
GAACGGCA	-0.067 ± 0.0073

Sequence	PBM E-score of 8-mer
GCCGCTAC	0.0759 ± 0.0049
AGTATGTG	0.119 ± 0.04
CACGTAAC	0.0244 ± 0.006
GAACAAAA	-0.0265 ± 0.017
TCTTTGAA	-0.0683 ± 0.06
CACTATCA	0.314 ± 0.0061
ATTTCTAG	-0.155 ± 0.0062
ACCCAGGA	-0.231 ± 0.048
CCCACATA	-0.066 ± 0.045
CAGTTCAA	-0.245 ± 0.077
AACCAAAA	-0.103 ± 0.062
CGCTCCGC	-0.0832 ± 0.027
CCAGCACA	0.00791 ± 0.021
TAGGCTAA	-0.227 ± 0.023
GTAGTGAA	0.117 ± 0.025
CACGCGAA	0.258 ± 0.0049
CACAAGTG	0.38 ± 0.016
AATCTGCA	0.0571 ± 0.0002
ATCCTTTA	-0.0826 ± 0.0073
ATTTATGA	-0.133 ± 0.026
ACGGTTAA	0.00031 ± 0.0088
ATGATCGG	-0.241 ± 0.066
GTGTATGA	-0.0691 ± 0.0075
AGAGGTAT	-0.118 ± 0.034
AAATTATC	-0.0228 ± 0.092

Sequence	PBM E-score of 8-mer
CGTTTGAC	0.195 ± 0.0035
GACGTAAC	-0.0742 ± 0.014
GTGTAGGA	0.164 ± 0.047
AGATTGAC	0.0858 ± 0.031
ACAGGCGC	0.168 ± 0.1
AGCAGAAG	-0.0929 ± 0.013
GAAGGATA	-0.0822 ± 0.079
GAGCGCAA	-0.0387 ± 0.044
TCGTATCA	0.129 ± 0.031
GCGGGTTA	0.0769 ± 0.054
CGAGTCAC	0.0629 ± 0.097
CCGCGAGA	0.224 ± 0.037
AGGTTTGG	-0.181 ± 0.03
ACAAGTCC	-0.00732 ± 0.06
ATCTAGAT	0.0448 ± 0.016
CAGTGCCA	0.1526 ± 0.00012
ATCAGTCA	-0.161 ± 0.064
ATGAACTC	-0.16 ± 0.037
CTCTTAGC	0.081 ± 0.038
GAATAACA	0.173 ± 0.045
AGGAGAAA	-0.142 ± 0.051
CTCTATGA	-0.107 ± 0.033
AAATTGCG	0.0459 ± 0.085
AATAGACA	-0.00955 ± 0.034
GACCACTA	-0.0501 ± 0.019

Sequence	PBM E-score of 8-mer
GTGTACAA	0.0756 ± 0.0062
ACCGGAGT	-0.0199 ± 0.04
GGCTTTAC	-0.126 ± 0.075
ACGCTCCC	0.0294 ± 0.062
AAGCCATA	-0.172 ± 0.062
GAACGGTC	0.142 ± 0.024
TCTTTTCA	-0.0789 ± 0.052
ATTACCAC	0.21 ± 0.013
AGGAAAAT	-0.182 ± 0.018
AATATATC	-0.253 ± 0.041
GAAGCTTA	-0.213 ± 0.012
AACTGACA	0.303 ± 0.024
CTATGTAC	-0.245 ± 0.085
GAGACGGC	-0.0533 ± 0.024
CGGCACCA	0.18 ± 0.056
GATTAAGA	-0.0555 ± 0.026
GGATCAGA	-0.201 ± 0.054
AATACCAA	-0.09091 ± 0.00071
AACTAATC	-0.184 ± 0.048
AACAAGAG	-0.0913 ± 0.05
CATGCCAC	0.195 ± 0.055
AAAATTAA	-0.08 ± 0.041
CTTTCACA	0.44384 ± 0.0002
GCGGCCTA	0.0469 ± 0.022
CTACTCAG	-0.203 ± 0.072

Sequence	PBM E-score of 8-mer
TACGTGAA	0.0338 ± 0.073
CTAAGGGA	-0.162 ± 0.0075
AATGCCTG	-0.0548 ± 0.018
AGCGGTCC	-0.175 ± 0.0031
CCCGACGG	-0.0255 ± 0.11
ATAAGTTC	-0.0968 ± 0.0042
TATCGCCA	0.25 ± 0.013
CATCACAA	0.204 ± 0.042
TATCGACA	0.289 ± 0.017
ACAAGTCT	0.108 ± 0.023
AGACATAT	-0.0648 ± 0.081
CACTCGTC	0.17 ± 0.042
GAACTACA	0.0335 ± 0.0052
GTGATCCA	0.108 ± 0.054
AAAGCCGG	-0.0543 ± 0.01
AGCGGCGC	-0.0425 ± 0.033
CGACATCA	-0.062 ± 0.0075
GGGAGCCA	-0.16 ± 0.016
AGATAGTA	-0.0632 ± 0.013
GCCCTTAA	-0.0893 ± 0.13
GAAGGGTC	-0.132 ± 0.03
CGGGCAAC	-0.113 ± 0.063
GTACCACA	-0.11 ± 0.062
CATAATAG	-0.164 ± 0.03
AGCTTCAT	-0.0645 ± 0.016

Sequence	PBM E-score of 8-mer
CGACCCGC	0.0932 ± 0.075
CCATATCA	-0.00441 ± 0.0051
ACGCCTGG	0.22 ± 0.026
GTTTTTTA	-0.177 ± 0.01
CCGGTAGG	-0.0772 ± 0.028
GCTTCTCA	0.0746 ± 0.007
CACTCGGC	0.143 ± 0.021
AGTCTTTC	-0.115 ± 0.032
AACTACTC	0.0265 ± 0.012
CCTCGGGA	-0.0609 ± 0.073
AACTTTAC	0.18 ± 0.033
ATGCACCA	-0.193 ± 0.019
AAGCGAAT	-0.0981 ± 0.015
GGATACCC	-0.32 ± 0.087
CGCGTCCA	0.0205 ± 0.019
CGCCTTTC	0.171 ± 0.013
ATAAATGA	0.0153 ± 0.068
TAATTGAA	-0.0584 ± 0.097
AGACGAAA	-0.224 ± 0.0093
CCAGCGCC	0.151 ± 0.039
AATCCCAT	-0.202 ± 0.0064
CGAGATCG	0.175 ± 0.058
GATCCCGC	0.0824 ± 0.045
CCGAGTCC	-0.112 ± 0.0067
AAGATGCA	-0.103 ± 0.022

Sequence	PBM E-score of 8-mer
GGTCGAAC	0.177 ± 0.019
AAGGTCGA	-0.204 ± 0.071
GGTAGTAA	-0.0268 ± 0.044
AGATTGCG	0.064 ± 0.013
GCGCGCTA	0.109 ± 0.053
GTATCTCA	0.106 ± 0.022
CACCGTCA	0.205 ± 0.02
CAGAGCTG	0.0374 ± 0.013
AATCAGAC	-0.165 ± 0.078
CTGGGAAA	0.0158 ± 0.035
AGTCATAA	-0.171 ± 0.052
GGAGAAAA	-0.0534 ± 0.045
AGATGACA	0.261 ± 0.019
TCATCTAA	-0.00051 ± 0.043
TATCCGGA	-0.202 ± 0.0085
CCACAACG	-0.0571 ± 0.034
GCCGTAAA	-0.163 ± 0.027
CAATCGTG	0.138 ± 0.026
CCGGGGCG	-0.104 ± 0.057
CATCCACG	-0.056 ± 0.067
GCCATGCA	-0.127 ± 0.018
ATTCTTTA	0.000875 ± 0.014
